# Laboratory results as given in the supplement of paper PMC11741623.
# This is one part of the list. Interaction screen of human proteins with wild-type SARS-CoV-2 proteins by split-DHFR complementation in yeast, 1 µg/mL methotrexate. Value = fitness of the pair (three or more lineages) minus that of the viral protein without a human partner, on a scale set by negative (0) and fused positive (1) controls, mean of up to three cultures; higher = more likely to interact. Active = false discovery rate below 0.05 (one-sided t-test) in at least one culture. Nearly all pairs are not hits, and differences among them are mostly noise (correlation between cultures about 0.3); most hits were seen in one culture only. Human sequences are the Swiss-Prot entries looked up by gene name; the clone may be another isoform. NSP2 values were corrected by the authors for a growth advantage. Listed are human proteins with a hit and a random twelfth of the others.
# Tests used:
# Assay in all cases: yeast fitness gain over the viral ORF with no human partner (scaled fitness); higher = more likely to interact
# [1] = tested on: SARS-CoV-2 E
# Description: (§1)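 Split mouse DHFR complementation in pooled diploid yeast: human ORFeome clones carry one fragment and viral ORFs the other; barcoded lineages compete in 1 µg/mL methotrexate and fitness is read by barcode sequencing in up to three cultures.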
# [2] = tested on: SARS-CoV-2 M
# Description: as §1
# [3] = tested on: SARS-CoV-2 NSP10
# Description: as §1
# [4] = tested on: SARS-CoV-2 NSP13
# Description: as §1
# [5] = tested on: SARS-CoV-2 NSP14
# Description: as §1
# [6] = tested on: SARS-CoV-2 NSP15
# Description: as §1
# [7] = tested on: SARS-CoV-2 NSP16
# Description: as §1
# [8] = tested on: SARS-CoV-2 NSP1
# Description: as §1
# [9] = tested on: SARS-CoV-2 NSP2
# Description: as §1
# [10] = tested on: SARS-CoV-2 NSP4
# Description: as §1
# [11] = tested on: SARS-CoV-2 NSP5
# Description: as §1
# [12] = tested on: SARS-CoV-2 NSP6
# Description: as §1
# [13] = tested on: SARS-CoV-2 NSP7
# Description: as §1
# [14] = tested on: SARS-CoV-2 NSP8
# Description: as §1
# [15] = tested on: SARS-CoV-2 NSP9
# Description: as §1
# [16] = tested on: SARS-CoV-2 N
# Description: as §1
# [17] = tested on: SARS-CoV-2 ORF10
# Description: as §1
# [18] = tested on: SARS-CoV-2 ORF3B
# Description: as §1
# [19] = tested on: SARS-CoV-2 ORF6
# Description: as §1
# [20] = tested on: SARS-CoV-2 ORF7A
# Description: as §1
# [21] = tested on: SARS-CoV-2 ORF7B
# Description: as §1
# [22] = tested on: SARS-CoV-2 ORF8
# Description: as §1
# [23] = tested on: SARS-CoV-2 S
# Description: as §1
# [24] = tested on: SARS-CoV-2 ORF3A
# Description: as §1
Substance,yeast fitness gain [1],yeast fitness gain [2],yeast fitness gain [3],yeast fitness gain [4],yeast fitness gain [5],yeast fitness gain [6],yeast fitness gain [7],yeast fitness gain [8],yeast fitness gain [9],yeast fitness gain [10],yeast fitness gain [11],yeast fitness gain [12],yeast fitness gain [13],yeast fitness gain [14],yeast fitness gain [15],yeast fitness gain [16],yeast fitness gain [17],yeast fitness gain [18],yeast fitness gain [19],yeast fitness gain [20],yeast fitness gain [21],yeast fitness gain [22],yeast fitness gain [23],yeast fitness gain [24]
"PRR14L, Q5THK1",inactive: -0.128,inactive: -0.0202,inactive: 0.00455,inactive: -0.0404,inactive: 0.0317,inactive: -0.0229,inactive: -0.0745,inactive: 0.0217,inactive: -0.117,inactive: -0.0336,inactive: -0.0891,inactive: 0.00808,inactive: -0.0461,inactive: -0.0264,inactive: -0.0575,inactive: -0.0158,inactive: -0.0481,inactive: -0.00477,inactive: 0.0374,inactive: -0.0112,inactive: -0.0685,inactive: -0.00466,inactive: 0.0166,
"TIMM50, Q3ZCQ8",inactive: 0.141,inactive: 0.0601,inactive: 0.0102,inactive: -0.0038,inactive: -0.242,inactive: -0.0243,inactive: 0.0486,inactive: -0.0235,inactive: -0.0841,inactive: 0.0197,inactive: 0.045,,inactive: 0.000258,inactive: 0.0201,inactive: 0.0599,inactive: -0.025,inactive: 0.0189,inactive: 0.0601,inactive: -0.05,inactive: -0.0414,inactive: 0.0235,inactive: 0.0135,inactive: 0.0396,
"FAM136A, Q96C01",inactive: 0.0594,inactive: 0.0637,inactive: 0.00537,inactive: -0.0449,inactive: 0.0638,inactive: 0.097,inactive: -0.0329,inactive: -0.00677,active: 0.148,inactive: -0.123,inactive: -0.0325,inactive: 0.0641,inactive: -0.0635,inactive: -0.000434,inactive: 0.189,,inactive: 0.0384,inactive: 0.018,inactive: 0.0411,inactive: 0.00474,inactive: 0.0159,inactive: 0.00334,inactive: 0.0153,inactive: -1.2e-05
"OXCT1, P55809",inactive: -0.027,inactive: -0.0462,inactive: -0.05,inactive: 0.00509,,inactive: 0.0968,,inactive: 0.00157,inactive: -0.196,,inactive: -0.03,inactive: -0.053,inactive: -0.166,inactive: -0.00146,,inactive: -0.0796,inactive: -0.0491,inactive: -0.0713,inactive: 0.0439,,inactive: -0.1,inactive: -0.0328,inactive: 0.0146,
"IDH3B, O43837",,inactive: 0.018,inactive: 0.0286,inactive: 0.0279,inactive: -0.263,inactive: -0.0318,,inactive: -0.0673,inactive: -0.12,,inactive: -0.0115,inactive: -0.1,inactive: 0.173,inactive: 0.0419,,inactive: 0.179,inactive: 0.00774,inactive: 0.0742,inactive: -0.0224,inactive: 0.0391,inactive: 0.00714,inactive: 0.0238,inactive: 0.0603,inactive: -0.0519
"ZNF785, A8K8V0",inactive: -0.151,inactive: 0.00873,inactive: 0.0149,inactive: -0.00691,inactive: -0.0206,inactive: -0.0283,inactive: -0.0104,inactive: -0.0822,inactive: -0.182,inactive: -0.0398,inactive: 0.0521,inactive: -0.0402,inactive: -0.00403,inactive: 0.0255,inactive: 0.0453,inactive: -0.0503,inactive: 0.013,inactive: 0.0164,inactive: -0.0148,inactive: 0.0341,inactive: -0.0488,inactive: 0.0417,inactive: 0.0229,inactive: 0.0299
"HEATR1, Q9H583",,inactive: -0.0191,inactive: 0.048,inactive: 0.0154,inactive: -0.125,inactive: -0.332,inactive: -0.049,inactive: 0.0423,,inactive: 0.154,inactive: 0.00227,inactive: -0.102,inactive: 0.00132,inactive: -0.104,inactive: -0.0233,,inactive: 0.0168,inactive: -0.0279,inactive: 0.039,inactive: 0.0786,inactive: -0.0138,inactive: 0.00425,inactive: 0.0198,inactive: -0.0458
"RALYL, Q86SE5",inactive: 0.0109,,inactive: -0.163,inactive: -0.0505,,inactive: 0.0176,,,active: 0.623,,inactive: -0.0153,inactive: -0.075,,inactive: -0.514,,,inactive: -0.15,inactive: 0.0647,inactive: -0.0245,inactive: -0.192,inactive: -0.171,inactive: -0.188,inactive: -0.0692,inactive: -0.0245
"KLF6, Q99612",inactive: -0.12,inactive: 0.127,inactive: -0.0266,inactive: 0.0189,,inactive: -0.0334,inactive: -0.0239,inactive: -0.122,inactive: -0.171,,inactive: 0.0581,,inactive: -0.0138,inactive: 0.0961,,,inactive: 0.0878,inactive: -0.0496,inactive: 0.0126,inactive: -0.0895,inactive: -0.0694,inactive: -0.00986,inactive: 0.0788,inactive: -0.0205
"CABP5, Q9NP86",inactive: -0.0749,inactive: -0.041,inactive: 0.00176,inactive: -0.0628,,inactive: -0.000497,inactive: 0.0577,inactive: -0.00512,inactive: -0.171,,inactive: 0.0688,inactive: 0.123,inactive: 0.00817,inactive: -0.0293,inactive: -0.422,,inactive: -0.18,inactive: 0.0141,inactive: -0.0131,inactive: -0.0518,inactive: -0.112,inactive: -0.171,inactive: -0.0157,inactive: -0.104
"HSPB7, Q9UBY9",,inactive: 0.0153,inactive: -0.0707,inactive: -0.116,,inactive: -0.0905,inactive: -0.0748,inactive: 0.0253,inactive: -0.166,,inactive: -0.0754,inactive: -0.0106,inactive: -0.0791,inactive: 0.0883,,,inactive: 0.0632,inactive: 0.0212,inactive: 0.0566,inactive: 0.0582,inactive: -0.0423,inactive: -0.0628,inactive: -0.0261,
"NDRG4, Q9ULP0",inactive: 0.0249,inactive: -0.0582,inactive: 0.015,inactive: 0.0465,inactive: 0.0602,inactive: 0.05,inactive: 0.0498,inactive: -0.0244,inactive: -0.0475,inactive: 0.103,inactive: -0.00183,inactive: 0.0124,inactive: -0.000215,inactive: -0.00277,inactive: -0.0327,inactive: -0.0357,inactive: 0.0133,inactive: 0.0531,inactive: 0.0163,inactive: -0.0209,inactive: -0.00928,inactive: 0.0453,inactive: 0.0245,inactive: 0.0449
"ZNF673, Q5JUW0",inactive: -0.0947,inactive: -0.03,inactive: -0.0892,inactive: 0.0301,inactive: -0.13,inactive: 0.0985,inactive: 0.079,inactive: -0.166,inactive: -0.216,inactive: -0.352,inactive: 0.0165,inactive: -0.0291,inactive: -0.0625,inactive: -0.044,inactive: -0.051,,inactive: 0.0462,inactive: 0.0705,inactive: 0.0357,inactive: 0.0225,inactive: 0.0153,inactive: 0.0872,inactive: -0.0364,inactive: 0.0475
"IHH, Q14623",inactive: -0.0417,inactive: 0.0808,inactive: 0.0182,inactive: 0.0264,inactive: 0.0723,inactive: -0.00266,inactive: -0.0365,inactive: 0.0586,inactive: -0.0287,inactive: 0.0616,inactive: 0.00361,inactive: 0.0232,inactive: 0.0375,inactive: 0.00317,inactive: 0.0671,inactive: 0.0669,inactive: 0.00256,inactive: 0.0194,inactive: 0.047,inactive: 0.0184,inactive: 0.0381,inactive: -0.00131,inactive: 0.124,inactive: 0.0566
